This is one part of the list.
The compounds below were run on T1, C. trachomatis L2/434/Bu expressing GFP (CTL2-GFP). Conditions: total inclusion area; 28.5 h, 10 µM; inhibitor.
T1 construct: L2/434/Bu GFP intracellular growth in HeLa cells
Parameters: species or system HeLa; C. trachomatis total inclusion area by high-content imaging, normalised to DMSO
Procedure, shortened: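 Post-fluorescence-read fixation, DNA staining with Hoechst and high-content imaging; GFP inclusion area and number per well, and nuclei counts, used as proxies for bacterial growth and host viability.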

Structure (SMILES)	% of control remaining
CCOc1cc(NC2CCN(C(=O)C3CCCC3)C2)ncn1 (stereo not drawn) [CBK304137]	45.6736
COc1ccc(CC(=O)N2CCCCC2c2cc(-c3ccc(F)cc3)cc(C)n2)cc1OC (stereo not drawn) [CBK285858]	90.6413
c1ccc(Oc2ccccc2-c2ccc(Nc3ccc(N4CCOCC4)cc3)nc2)cc1 [CBK036913]	127.748
CC(=O)Nc1ccc(-c2cccc(COC3CCN(C(=O)Cc4ccc(Cl)c(Cl)c4)CC3)c2)cc1 [CBK149487]	82.5561
O=C(O)c1ccc(NS(=O)(=O)c2ccc3c(c2)OCCO3)cc1 [CBK296129]	105.271
CC(C)(CSc1ncccn1)NS(=O)(=O)c1ccccc1 [CBK268282]	112.296
COc1ccccc1OCCOc1ccc(/C=N/n2cnnc2)cc1 [CBK263295]	50.1281
OC(CN1CCC(O)(c2ccc(F)cc2)CC1)c1ccccc1 (stereo not drawn) [CBK282489]	116.419
Cc1c(C(=O)Nc2ccc(OCc3ccccc3F)cc2)sc2nc[nH]c(=O)c12 [CBK285834]	105.225
Cc1ccsc1C(C)NC1CCCN(c2ccn(C)n2)C1=O (stereo not drawn) [CBK306419]	112.617
O=C1c2cccc3cccc(c23)C(=O)N1CCCSc1nnc[nH]1 [CBK268894]	106.188
O=C(O)CCC(=O)N1CC[C@H]2NC(=O)N(c3ccc(F)cc3)C(=O)[C@H]21 [CBK289329]	100.156
N#C/C(=C\c1ccc(-c2cccc(C(=O)O)c2)o1)c1nc2ncc(Br)cc2[nH]1 [CBK265054]	105.657
Cc1ccc(CC(=O)N2CCC(Cc3ccc(-c4cccc(C)c4)cc3)(C(N)=O)CC2)cc1 [CBK285906]	108.836
O=C(Nc1ccc2c(c1)OCCO2)c1cnc(-c2ccc(Cl)cc2)c(-c2cccnc2)c1 [CBK037528]	99.5066
COc1ccc(-c2cc(C(F)(F)F)c3c(n2)sc2c(=O)cc(O)[nH]c23)cc1OC [CBK270201]	117.668
O=C(CC1CCN(C(=O)CC2CCCCC2)CC1)Nc1ccccc1CN1CCCC1 [CBK286046]	89.5666
O=[N+]([O-])c1ccc(CSc2nnc(-c3cccnc3)n2Cc2ccco2)cc1 [CBK264580]	101.745
CN1CCN(C2Cc3ccccc3Sc3c(O)cccc32)CC1 (stereo not drawn) [CBK026200G]	90.9574
Nc1ncc(-c2ccsc2)nc1NCc1ccncc1 [CBK063614]	158.281
Cn1c(=O)c2c([nH]c(=S)n2CCCc2ccccc2)n(C)c1=O [CBK288411]	46.4652

From paper PMC12040169 (PLOS Biology, 2025)
